Measurements as given in patent publication US12116397B2, “IL-IR-I binding polypeptide” (Swedish Orphan Biovitrum AB (publ), priority 2017, dated 2024).

Key:
[1] = Circular dichroism (CD) spectroscopy analysis, melting temperature and refolding; type: physicochemical; conditions: His6-tagged Z variants, CD variable temperature measurement, Table 21
Protocol: Purified His6-tagged Z variants were diluted to 0.5 mg/ml in PBS. For each diluted Z variant, a CD spectrum at 250-195 nm was obtained at 20° C. In addition, a variable temperature measurement (VTM) was performed to determine the melting temperature (Tm). In the VTM, the absorbance was measured at 221 nm while the temperature was raised from 20 to 90° C., with a temperature slope of 5° C./min. A new CD spectrum was obtained at 20° C. after the heating procedure in order to study the refolding ability of the Z variants. The CD measurements were performed on a Jasco J-810 spectropolarimeter (Jasco Scandinavia AB) using a cell with an optical path length of 1 mm.
CD was analyzed for His6-tagged Z variants, as described in Example 2.

TF-1 cells = assay: In vitro IL-1β neutralization assay (TF-1 cell assay); type: cell-based; conditions: His6-Z polypeptides, IL-1β inhibition in TF-1 cell assay, Table 20 (Example 9)
Protocol: The TF-1 cell line proliferates in response to many different cytokines including IL-1β. This cell line was used to assess the ability of primary IL-1R1 binders to inhibit IL-1β actions. TF-1 cells were maintained in RPM11640 with L-glutamine (Lonza) supplemented with 10% FCS (Gibco), Penicillin-Streptomycin (Lonza) and 2 ng/ml rhGM-CSF (R&D Systems). Prior to use, cells were washed twice in RPM11640 without rhGM-CSF. Cells were then counted and dispensed into 96 well flat bottomed plates at a density of 3×10^4 cells per well. In separate plates, serial dilutions of the inhibitory binders; His6-tagged IL-1R-I binding Z variants, with a concentration range of 400-0.1 nM, or the IL-1R-I binding protein Kineret (anakinra, Sobi), with a concentration range of 0.3-0.0003 nM, were incubated in the presence of 0.6 nM IL-1β (PeproTech). The pre-mixed complexes of the Z variant polypeptides and IL-13 were transferred to wells containing TF-1 cells. The cells were stimulated for 72 h at 37° C. in a humidified 5% CO2 atmosphere. During the last four hours of incubation, 19 μl of 2× diluted CCK-8 (Fluka, Sigma Aldrich), was added per well to determine the proliferative responses. The absorbance was measured at 450 nm using a microplate reader (Victor3, Perkin Elmer). The data on cell growth was assessed by non-linear regression to a four-parameter dose-response curve, and the half maximal inhibitory concentration (IC50) was determined using GraphPadPrism program.
(§1) His6-tagged IL-1R-I specific Z variants were tested for their inhibitory capacity in the TF-1 cell assay. The assay was run as described in Example 2. The data on cell growth was assessed by non-linear regression to a four-parameter dose-response curve, and IC50 values were determined using GraphPadPrism program. His6-tagged Z12967 was included for comparison.
as §1, with “Z12967, Z16065, Z16163 and Z18557 were” for “Z12967 was”

hIL-1R-I = target: T1, hIL-1R-I (Homo sapiens, UniProt P14778); assay: Biacore affinity/kinetic analysis of His6-tagged Z variants, human IL-1R-I; type: binding; conditions: His6-Z polypeptides binding to human IL-1R-I, Biacore, Table 19; for Kd: read-out: KD
T1 construct: purchased R&D Systems 269-1R/CF
T1 sequence (P14778 18-569): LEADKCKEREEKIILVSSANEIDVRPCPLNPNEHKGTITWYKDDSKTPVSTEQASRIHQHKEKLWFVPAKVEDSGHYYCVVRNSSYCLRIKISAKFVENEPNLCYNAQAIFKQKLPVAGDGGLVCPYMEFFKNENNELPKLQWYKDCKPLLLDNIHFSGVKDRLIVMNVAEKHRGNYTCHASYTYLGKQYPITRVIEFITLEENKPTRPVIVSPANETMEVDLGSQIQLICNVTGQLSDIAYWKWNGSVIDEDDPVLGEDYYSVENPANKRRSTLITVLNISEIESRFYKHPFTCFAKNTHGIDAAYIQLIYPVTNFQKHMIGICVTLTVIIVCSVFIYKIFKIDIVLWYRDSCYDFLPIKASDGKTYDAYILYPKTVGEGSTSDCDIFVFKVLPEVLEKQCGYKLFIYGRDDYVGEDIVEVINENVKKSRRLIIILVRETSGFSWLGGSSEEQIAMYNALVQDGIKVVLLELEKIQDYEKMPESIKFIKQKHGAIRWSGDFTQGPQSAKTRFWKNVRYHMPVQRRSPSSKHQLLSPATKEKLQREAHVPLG
Protocol: Affinities (KD) for human and cynomolgus IL-1R-I were determined for His6-tagged Z variants using a Biacore 2000 instrument (GE Healthcare). hIL-1R-I or cIL-1R-I-His6 was immobilized on the carboxylated dextran layer in different flow cells of a CM5 chip (GE Healthcare, cat. no. BR100012). The immobilization was performed using amine coupling chemistry according to the manufacturer's protocol. Acetate pH 4.5 (GE Healthcare, cat. no. BR100350) was used for ligand dilution and HBS-EP (GE Healthcare, cat. no. BR100188) was used as running buffer. One flow cell surface on the chip was activated and deactivated for use as blank during analyte injections. In the kinetic experiment, HBS-EP was used as running buffer, the flow rate was 50 μl/min and the temperature was 25° C. The analytes, i.e. the Z variants, were each diluted in HBS-EP buffer to final concentrations of 40 nM and 10 nM, and were injected over the target chip surfaces for 2 min, followed by dissociation in running buffer for 8 min. Kinetic constants were calculated from the obtained sensorgrams using a 1:1 binding model, in the BiaEvaluation software 4.1 (GE Healthcare).
The kinetic constants (kon and koff) and affinities (KD) for human and cynomolgus IL-1R-I were determined for His6-tagged Z variants using a Biacore 2000 instrument (GE Healthcare). The experiment was run essentially as described in Example 2, using 100, 10 and 1 nM of the Z variants. The analyte injection time was 3 min followed by 15 min dissociation and 2×5 s glycine pH 3.0 (GE Healthcare, cat. no. BR100357), supplemented with 0.5 M NaCl, was used for regeneration of the surfaces between the cycles. Kinetic constants were calculated from the obtained sensorgrams of two or three concentrations of the respective Z variant, using a 1:1 binding model in the BiaEvaluation software 4.1 (GE Healthcare). His6-tagged Z12967 was included in the assay for comparison.
The kinetic constants (kon and koff) and affinities (KD) for human and cynomolgus IL-1R-I were determined for His6-tagged Z variants using a Biacore 2000 instrument (GE Healthcare). The experiment was run essentially as described in Example 5, using 48, 12, 3 and 0.75 nM of the Z variants. The analyte injection time was 3 min followed by 6 min dissociation and 2×5 s glycine pH 3.0, supplemented with 0.5 M NaCl, was used for regeneration of the surfaces between the cycles. Kinetic constants were calculated from the obtained sensorgrams of three or four concentrations of the respective Z variant, using a 1:1 binding model in the BiaEvaluation software 4.1 (GE Healthcare). His6-tagged Z12967 (SEQ ID NO:9), Z16065 (SEQ ID NO:268), Z16163 (SEQ ID NO:359) and Z18557 (SEQ ID NO:1205) were included in the assay for comparison.

Molecule | Melting temperatures (Tm) [1] | IC50 (TF-1 cells) | koff (hIL-1R-I) | kon (hIL-1R-I) | Kd (hIL-1R-I)
Z18813 (protein) AQHDEALEVDAKYAKEVEEIQMEIFALPNLTRKQYTAFIRKLFDDPSQSSELLSEAKKLNDSQAPKVDYVLAEAKVLANRELDKYGVSDYYKNLINNAKTVEGVKALIDEILAALPYVPG | 61 °C | 1.2 nM | 0.0039 s⁻¹ | 2e+07 M⁻¹ s⁻¹ | 
Z18832 (protein) AQHDEALEVDAKYAKEVEEIQMEIFHLPNLTRRQYTAFIRKLLDDPSQSSELLSEAKKLNDSQAPKVDYVLAEAKVLANRELDKYGVSDYYKNLINNAKTVEGVKALIDEILAALPYVPG | 58 °C | 0.5 nM | 0.007 s⁻¹ | 5.9e+07 M⁻¹ s⁻¹ | 0.12 nM
Z18834 (protein) AQHDEALEVDAKYAKEVEEIQMEIFGLPNLTRRQYTAFIRKLLDDPSQSSELLSEAKKLNDSQAPKVDYVLAEAKVLANRELDKYGVSDYYKNLINNAKTVEGVKALIDEILAALPYVPG | 58 °C | 0.5 nM | 0.008 s⁻¹ | 5.8e+07 M⁻¹ s⁻¹ | 0.14 nM
Z15934 (protein) AQHDEALEVDAKYAKEVTVAQMEIFALPNLTRKQYTAFIRKLLDDPSQSSELLSEAKKLNDSQAPKVDYVLAEAKVLANRELDKYGVSDYYKNLINNAKTVEGVKALIDEILAALPYVPG | 62 °C | 6.4 nM | 0.011 s⁻¹ | 1.4e+07 M⁻¹ s⁻¹ | 0.75 nM
